A collection of fitness landscapes (doi:10.1126/science.1257360)
Some of the results follow.

B1: PhoQ; a variant is named by its letters at X, in order, P23837 (parent)
chain: MKKLLRLFFPLSLRVRFLLATAAVVLVLSLAYGMVALIGYSVSFDKTTFRLLRGESNLFYTLAKWENNKLHVELPENIDKQSPTMTLIYDENGQLLWAQRDVPWLMKMIQPDWLKSNGFHEIEADVNDTSLLLSGDHSIQQQLQEVREDDDDAEMTHSVAVNVYPATSRMPKLTIVVVDTIPVELKSSYMVWSWFIYVLSANLLLVIPLLWVAAWWSLRPIEALAKEVRELEEHNRELLNPATTRELTSLVRNLNRLLKSERERYDKYRTTLTDLTHSLKTPLXXLQXXLRSLRSEKMSVSDAEPVMLEQISRISQQIGYYLHRASMRGGTLLSRELHPVAPLLDNLTSALNKVYQRKGVNISLDISPEISFVGEQNDFVEVMGNVLDNACKYCLEFVEISARQTDEHLYIVVEDDGPGIPLSKREVIFDRGQRVDTLRPGQGVGLAVAREITEQYEGKIVAGESMLGGARMEVIFGRQHSAPKDE

Variants of: B1
Assay: enrichment ratio after two sorts for PhoP signalling (ratio (wild type AVST 3.29)); higher = more functional
Details: with PhoP (E. coli)

| Variant | enrichment ratio |
| --- | --- |
| EEYA | ≤ 0.25 |
| VHQH | ≤ 0.25 |
| MAKK | ≤ 0.25 |
| WYVH | ≤ 0.25 |
| ISEH | ≤ 0.25 |
| TMNC | 15.3 |
| GPTF | ≤ 0.25 |
| KRFE | ≤ 0.25 |
| FREM | ≤ 0.25 |
| KGEL | ≤ 0.25 |
| RRHD | ≤ 0.25 |
| IYFN | ≤ 0.25 |
| HPTF | ≤ 0.25 |
| PKIC | ≤ 0.25 |
| LDVD | ≤ 0.25 |
| TLCR | ≤ 0.25 |
| RGKT | ≤ 0.25 |
| PSPF | ≤ 0.25 |
| RWYF | ≤ 0.25 |
| IGTK | ≤ 0.25 |
| AFIY | ≤ 0.25 |
| GESA | ≤ 0.25 |
| SHYS | ≤ 0.25 |
| IDRT | ≤ 0.25 |
| IHGM | ≤ 0.25 |

| Variant | enrichment ratio |
| --- | --- |
| WFWP | ≤ 0.25 |
| GMER | ≤ 0.25 |
| LQWC | ≤ 0.25 |
| YHAC | ≤ 0.25 |
| KVAY | ≤ 0.25 |
| PHAE | ≤ 0.25 |
| ADER | ≤ 0.25 |
| NTDS | ≤ 0.25 |
| QMTI | ≤ 0.25 |
| TWHQ | ≤ 0.25 |
| ALIF | ≤ 0.25 |
| LNDI | ≤ 0.25 |
| PEVF | ≤ 0.25 |
| RFAC | ≤ 0.25 |
| HNWR | ≤ 0.25 |
| MARL | ≤ 0.25 |
| RPHE | ≤ 0.25 |
| HKET | ≤ 0.25 |
| DTLA | ≤ 0.25 |
| SFFF | ≤ 0.25 |
| KCAE | ≤ 0.25 |
| QTQF | ≤ 0.25 |
| TVMR | 2.36 |
| AFFA | ≤ 0.25 |
| VPIN | ≤ 0.25 |

| Variant | enrichment ratio |
| --- | --- |
| SSSQ | 9 |
| LGCY | ≤ 0.25 |
| RNRE | ≤ 0.25 |
| TKVI | 30.1 |
| DVLV | ≤ 0.25 |
| MTRN | ≤ 0.25 |
| APCF | ≤ 0.25 |
| MKAT | ≤ 0.25 |
| SGNW | ≤ 0.25 |
| GDRN | ≤ 0.25 |
| SIDE | ≤ 0.25 |
| SNYS | ≤ 0.25 |
| RQQR | ≤ 0.25 |
| PCNI | ≤ 0.25 |
| KKFT | ≤ 0.25 |
| DWDT | ≤ 0.25 |
| MGPK | ≤ 0.25 |
| TNGE | ≤ 0.25 |
| SRMW | ≤ 0.25 |
| AFDA | ≤ 0.25 |
| AGSD | ≤ 0.25 |
| DFLF | ≤ 0.25 |
| DITI | ≤ 0.25 |
| VQFW | ≤ 0.25 |
| EILL | 1.1 |

| Variant | enrichment ratio |
| --- | --- |
| QFCF | ≤ 0.25 |
| MGKP | ≤ 0.25 |
| AAPM | 4.08 |
| NKEG | ≤ 0.25 |
| PQPM | ≤ 0.25 |
| KGLA | ≤ 0.25 |
| KCYP | ≤ 0.25 |
| DQQS | ≤ 0.25 |
| ILCP | ≤ 0.25 |
| LLDA | ≤ 0.25 |
| VSQY | ≤ 0.25 |
| NPYV | ≤ 0.25 |
| EFYD | ≤ 0.25 |
| SCDI | ≤ 0.25 |
| ENYT | ≤ 0.25 |
| KTIS | ≤ 0.25 |
| DVYC | ≤ 0.25 |
| RKAF | ≤ 0.25 |
| HCRC | ≤ 0.25 |
| WYMA | ≤ 0.25 |
| AHYF | ≤ 0.25 |
| NWHS | ≤ 0.25 |
| WLYA | ≤ 0.25 |
| HKPT | ≤ 0.25 |
| NGGI | ≤ 0.25 |

| Variant | enrichment ratio |
| --- | --- |
| YGSQ | ≤ 0.25 |
| AVVF | 0.94 |
| KLPS | ≤ 0.25 |
| TFNP | ≤ 0.25 |
| IITG | ≤ 0.25 |
| DCQF | ≤ 0.25 |
| YWCV | ≤ 0.25 |
| PMDT | ≤ 0.25 |
| FHRE | ≤ 0.25 |
| LNSI | ≤ 0.25 |
| FGHM | ≤ 0.25 |
| LNEW | ≤ 0.25 |
| SYQY | ≤ 0.25 |
| YNQI | 0.676 |
| FQGW | ≤ 0.25 |
| LFFG | 0.356 |
| VVFT | ≤ 0.25 |
| PYGE | ≤ 0.25 |
| PEQI | ≤ 0.25 |
| NWAL | ≤ 0.25 |
| IAGN | ≤ 0.25 |
| SANW | ≤ 0.25 |
| NYYC | ≤ 0.25 |
| LTAQ | ≤ 0.25 |
| KCQE | ≤ 0.25 |

| Variant | enrichment ratio |
| --- | --- |
| VIWE | ≤ 0.25 |
| MQCM | 8.31 |
| MTWM | ≤ 0.25 |
| VNCV | 4.67 |
| TDKQ | ≤ 0.25 |
| RYIL | ≤ 0.25 |
| NTRF | ≤ 0.25 |
| GNTA | ≤ 0.25 |
| MNMY | ≤ 0.25 |
| VGKM | ≤ 0.25 |
| RYMW | ≤ 0.25 |
| WDDI | ≤ 0.25 |
| EHNL | ≤ 0.25 |
| SLKP | ≤ 0.25 |
| EANW | ≤ 0.25 |
| RFVR | ≤ 0.25 |
| GHYH | ≤ 0.25 |
| ANHH | ≤ 0.25 |
| TCYL | 16.2 |
| FLGC | ≤ 0.25 |
| WPFK | ≤ 0.25 |
| TFKQ | ≤ 0.25 |
| WGNW | ≤ 0.25 |
| HVQL | ≤ 0.25 |
| AKCQ | 19.1 |

| Variant | enrichment ratio |
| --- | --- |
| FECK | ≤ 0.25 |
| FQMQ | 4.12 |
| NLFT | ≤ 0.25 |
| GTYV | ≤ 0.25 |
| MKRG | ≤ 0.25 |
| RASA | ≤ 0.25 |
| LVKC | ≤ 0.25 |
| VGQE | ≤ 0.25 |
| QSDK | ≤ 0.25 |
| PWWQ | ≤ 0.25 |
| SKCE | 5.46 |
| HKFL | ≤ 0.25 |
| SRQY | ≤ 0.25 |
| IRLK | ≤ 0.25 |
| SLPT | ≤ 0.25 |
| NTVY | ≤ 0.25 |
| HWMP | ≤ 0.25 |
| RTDG | ≤ 0.25 |
| LPCC | ≤ 0.25 |
| WDWQ | ≤ 0.25 |
| KGHV | ≤ 0.25 |
| NEPW | ≤ 0.25 |
| YTDN | ≤ 0.25 |
| LMMA | ≤ 0.25 |
| VCPA | ≤ 0.25 |

| Variant | enrichment ratio |
| --- | --- |
| TARA | ≤ 0.25 |
| YANK | ≤ 0.25 |
| YVIL | ≤ 0.25 |
| IAFK | ≤ 0.25 |
| DMRT | ≤ 0.25 |
| LISR | ≤ 0.25 |
| PFHH | ≤ 0.25 |
| HHPR | ≤ 0.25 |
| QCFT | ≤ 0.25 |
| GTML | 12.6 |
| NAHM | ≤ 0.25 |
| PRMS | ≤ 0.25 |
| MRDL | ≤ 0.25 |
| MASD | ≤ 0.25 |
| YGRW | ≤ 0.25 |
| MRLH | ≤ 0.25 |
| RAIS | ≤ 0.25 |
| GRDS | ≤ 0.25 |
| RMTC | ≤ 0.25 |
| AIFP | ≤ 0.25 |
